Over roughly 33,000 sequences, “E-score (dimensionless, -0.5 to 0.5)” has its median near -0.058; the highest 2% begin near 0.35. Some of the results follow.
The sequences below were run on MvaT (assay: PBM 8-mer E-score (mean of HK and ME arrays) (E-score (dimensionless, -0.5 to 0.5)); higher = stronger relative binding preference; most listed sequences are background and not binding sites).
Experimental: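 Protein binding microarray: GST-tagged full-length MvaT (P. aeruginosa PAO1) bound to two universal double-stranded 60-mer arrays (ME and HK), each with a constant 25-mer primer and a variable 35-mer region covering all 8-mers. The 8-mer E-score (rank-based, range -0.5 to 0.5, >0.45 = specific binding) is the mean of the two arrays.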

In order of rising “PBM 8-mer E-score” value:
1. AGGCCCCT  -0.343
2. GCGCCCCA  -0.311
3. GGTCGGGA  -0.309
4. ATCTGGCC  -0.308
5. CGCATGGC  -0.3
6. AGGTTCTC  -0.286
7. CGAGCCAG  -0.276
8. CACATCGG  -0.276
9. CAGCCGTC  -0.275
10. CCGGATCG  -0.273
11. CACTAGCC  -0.269
12. CGGTCACC  -0.257
13. CCCCAAGA  -0.255
14. CTCTCACA  -0.253
15. AGCAGGTG  -0.242
16. CAGGTTTC  -0.24
17. CCGGAGGC  -0.237
18. AACCGCCT  -0.233
19. GATGACGC  -0.233
20. AGTCGAGC  -0.226
21. CCTCCCAC  -0.225
22. AAGACCGA  -0.223
23. ATGTCGCC  -0.205
24. CTCATTCC  -0.204
25. CCACCCAC  -0.199
26. AGTGAGGC  -0.193
27. AGTCACGA  -0.191
28. GGCACCTA  -0.188
29. AATGCCTC  -0.186
30. CAAGCCAG  -0.178
31. GCCTGCTA  -0.177
32. AGAACTCG  -0.169
33. AGAGCAAC  -0.161
34. TCCCTTCA  -0.155
35. CGTTCTGA  -0.154
36. CCGGGTTA  -0.146
37. AAGCGCTC  -0.134
38. ACACTGGT  -0.129
39. CGGCAATC  -0.127
40. AGCGGGCA  -0.124
41. CACGGACA  -0.124
42. CTCCATGA  -0.122
43. TACTGCGA  -0.121
44. GTGTGCCA  -0.112
45. CAGTTGCG  -0.0888
46. AGACATCC  -0.0887
47. AACAGCTC  -0.0832
48. CTTCGGCA  -0.0818
49. ATGTGCAA  -0.0709
50. AGCCTATC  -0.068
51. AATCCACC  -0.062
52. ACTGTACG  -0.0437
53. GCAGTTCA  -0.0406
54. GCAGCTTA  -0.0391
55. CTATCCAA  -0.0391
56. CATACCAG  -0.0357
57. AGCACGAA  -0.0112
58. GTCTAGAC  -0.0101
59. ACACCCAG  -0.00314
60. CTGTGAGA  0.00153
61. ATTCCTAC  0.00348
62. AGATTACC  0.00434
63. AGCGCTAT  0.00716
64. AGGAAATG  0.0162
65. CAAATGGA  0.0224
66. GAGACTTA  0.0232
67. ATACCGCC  0.0236
68. TCAAACGA  0.0344
69. GAAAGACA  0.0428
70. AAGTCAAT  0.0553
71. ACAGTTTG  0.0594
72. CTTATGCA  0.06
73. CCGTACAA  0.0642
74. AACATCGG  0.0723
75. GTCTTGTA  0.0803
76. AAGCGTAA  0.0807
77. AAGCTAAA  0.0847
78. AGCCATAA  0.086
79. CGTTACTA  0.0897
80. ACCAAATC  0.0905
81. GCTGGTTA  0.0965
82. ACATACCA  0.102
83. ATTGCGGG  0.115
84. AGCATCTA  0.116
85. CACAAAAA  0.117
86. ACGTAACT  0.129
87. CGCTATTC  0.132
88. ATTTTGAG  0.134
89. AGTAATTC  0.144
90. GTAAGTAC  0.151
91. ATAACGTG  0.167
92. AAACATTG  0.193
93. AGAGAATA  0.195
94. ATTCATTC  0.2
95. ATATGAAG  0.211
96. ATTATCCG  0.212
97. CATTTTAC  0.217
98. AATAAGGG  0.231
99. ACGAGTTA  0.232
100. ACGATTAT  0.245
101. ATTGTATG  0.25
102. AAATTGTA  0.267
103. TAGTAACA  0.274
104. AACGTTAT  0.289
105. TAATGGTA  0.295
106. AGTATTTG  0.308
107. TAATTGCA  0.318
108. TAAGTAAA  0.339
109. GACATATA  0.362

— the supplement of paper PMC4466236
